Experimental data published in patent US20140105862A1, “STREPTOMYCES MICROFLAVUS STRAINS AND METHODS OF THEIR USE TO CONTROL PLANT DISEASES AND PESTS” (priority 2012, published 2014).

Legend:
[1] = system: wild-type spider mites (Tetranychus urticae strain RW); test: Activity against wild-type spider mites on French bean
Experimental: (§1) A study was performed to determine the activity of NRRL B-50550 against abamectin-resistant spider mites (Tetranychus urticae strain NL), as compared to wild-type spider mites (Tetranychus urticae strain RW). French bean plants were treated with a wettable powder of a fermentation product of NRRL B-50550 prepared as described in the last paragraph of Example 9, at the rates shown in Table 17 below after dilution. Plants were infested one day prior to treatment with 50-100 of either strain NL or RW, and assessed for the presence of mites seven and fourteen days after treatment.

[2] = system: abamectin-resistant spider mites (Tetranychus urticae strain NL); test: Activity against abamectin-resistant spider mites on French bean
Experimental: as §1

Abamectin
7 days Wild Type Mites (% control) ([1]; 0.16 ppm): 99 % control | 14 days Wild Type Mites (% control) ([1]; 0.16 ppm): 100 % control | 7 days Wild Type Mites (% control) ([1]; 0.8 ppm): 100 % control | 14 days Wild Type Mites (% control) ([1]; 0.8 ppm): 100 % control | 7 days Wild Type Mites (% control) ([1]; 4 ppm): 100 % control | 14 days Wild Type Mites (% control) ([1]; 4 ppm): 100 % control | 7 days Wild Type Mites (% control) ([1]; 20 ppm): 100 % control | 14 days Wild Type Mites (% control) ([1]; 20 ppm): 100 % control | 7 days Resistant Mites (% control) ([2]; 0.16 ppm): 0 % control | 14 days Resistant Mites (% control) ([2]; 0.16 ppm): 0 % control | 7 days Resistant Mites (% control) ([2]; 0.8 ppm): 80 % control | 14 days Resistant Mites (% control) ([2]; 0.8 ppm): 0 % control | 7 days Resistant Mites (% control) ([2]; 4 ppm): 99 % control | 14 days Resistant Mites (% control) ([2]; 4 ppm): 80 % control | 7 days Resistant Mites (% control) ([2]; 20 ppm): 99 % control | 14 days Resistant Mites (% control) ([2]; 20 ppm): 99 % control
